# Measured values from the supplement of paper PMC11417369.
# ± gives the standard deviation of the averaged measurements. Some of the results follow.
# Test system: PfAP2-G AP2 domain (GST-tagged)
# Assay: gcPBM binding intensity (ln(normalized median fluorescence intensity)); higher = stronger DNA binding
# Method in brief: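 Binding of GST-tagged P. falciparum DNA-binding domains, expressed in E. coli and used at about 25 μg on average, was carried out for 1 h in 1× PBS containing 1% milk, 0.2 mg/ml BSA, 0.5% salmon testes DNA and 0.03% Triton X-100. The target was an Agilent 4 × 180k array of primer-extended double-stranded 36-bp intergenic genomic probes plus negative controls, read with Alexa488 anti-GST antibody at 488 nm. Binding intensity is the highest Masliner-normalised natural-log median intensity across replicate spots of either probe orientation.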
row,Sequence,gcPBM binding intensity (ln)
1,TTCAATTAAAAAATATGTACGCATAAATTGATATAT [XGTACX_site4289],11.4 ± 1
2,TTTTATGGAAAGTGTTGTACATATTTTTGTATATGT [XGTACX_site7356],11.4 ± 0.76
3,CACACGTATAAATATACACACTAAAATACACGCACA [CACACA_site7876],10.4 ± 0.29
4,TATCTTATATTTACACGTACGTAGAATTTATAAGTT [XGTACX_site3460],11.3 ± 0.78
5,TTTTATTAATATTATTTATCTTCTCAAAAGATATAT [XGTACX_negctrl_site202],9.87 ± 0.23
6,TTTAATATGTATTTTTTTTTTTTTTTTTTTTTTTTT [XGTACX_negctrl_site440],11 ± 0.6
7,TTTTTTTTTTTTTTTTGTACATATTTCTTATAAGTG [XGTACX_site6459],11 ± 0.98
8,TATAACAGGAATTATATATATATATATATATATTAT [CACACA_negctrl_site911],9.465 ± 0.021
9,CTTTTTTTAGTTAGGTGTACAATTTGTTATTATTAG [XGTACX_site1507],11.5 ± 0.77
10,AACTTCTTTTTTATAACACACAAAATATAAATACAA [CACACA_site4313],10.2 ± 0.43
11,GGAAGAATATATAGGACACACATACAATAATAAATA [CACACA_site6124],10.8 ± 0.64
12,TTTTTTTTTTTTTTTTTGCAATATATTTTAAAAAAG [CACACA_negctrl_site25],9.65 ± 0.44
13,TTTTTTTTTTTTTTTTTTTTTTGTGAAACTAAGTAA [CACACA_negctrl_site273],9.68 ± 0.46
14,AACATATAAATGATATGTACACACATTTATATATAT [XGTACX_site7364],11.4 ± 0.53
15,CAAATTAAATATTATGCATGTACCAAACATCCTACC [TGCATGCA_site35],10.8 ± 0.52
16,TAATACAAAAAGAAAAGTACATGTTAATTATTATTT [XGTACX_site2196],11.2 ± 0.67
17,TTTTATATCTAGTTTATATTTCTTAAATAAATAAAT [GTGCAC_negctrl_site245],9.83 ± 0.028
18,CAAATACATGGACACACACACATATACAGATATATA [CACACA_site5854],11 ± 0.61
19,TTGAAGTTTGATTGTAGTACGAATTGGTAGTTTTTT [XGTACX_site6854],11.1 ± 0.79

row,Sequence,gcPBM binding intensity (ln)
1,TTTTTTTTTTTTTTCTGTACTTAAAAAGGGGGAGAA [XGTACX_site3799],11.3 ± 0.95
2,CAAACATGTTCAAATTGTACAATAGAAAATATATAT [XGTACX_site1557],10.7 ± 0.4
3,GATTATATATACAAAAGTACATTATAAAAATTTCAT [XGTACX_site4223],11.2 ± 0.89
4,CCCTTAAAATATAAATGTACAAAATTATTTGTATGT [XGTACX_site6164],10.9 ± 0.57
5,ATAAACATCTAGTGCTGTACACAATTTGATTTTTTT [XGTACX_site3110],11.4 ± 0.81
6,TTCTTTTAATTACGAGTGCATACCATATGACATTAT [GTGCAC_site9819],10.5 ± 0.31
7,GTGAATATTAAAAAATGTACACAATTATATGTATAT [XGTACX_site4834],11.2 ± 0.73
8,AGAAAAGAGAGAAAAACATGCACATGATATTATAAA [TGCATGCA_site120],9.4 ± 0.4
9,CATATATAACATATAACACACATACTTAGTATTACA [CACACA_site5674],10.1 ± 0.24
10,ATGATAAACATGGATACACACATATATATTACATAT [CACACA_site1576],10.4 ± 0.28
11,ATAATATTTTATATAGTGCATTTGCTCATTATATAT [GTGCAC_site9528],9.775 ± 0.035
12,ACATATATATACTATCGATTAATAAATTTGTTTTTT [CACACA_negctrl_site881],9.975 ± 0.007
13,TATTTATAACATTGTACACACAAAGAAATAATATTA [CACACA_site7422],11.3 ± 0.84
14,ACGTATGTATATTACACACATACATATTATTCACTA [CACACA_site204],10.1 ± 0.16
15,AGGTTAATCGAAATTGCATGTGACGAAAAATCAAAA [TGCATGCA_site666],9.89 ± 0.11
16,TGAGTATATATAAATACACACCAAATGTTAATATAT [CACACA_site5022],9.88 ± 0.028
17,AAATATACATACATATGTACATATATATATATATAT [XGTACX_site8202],11.1 ± 0.69
18,ATAGTTAAAAAAAAAAAAAAAAAAAAAAGAGAGAGA [CACACA_negctrl_site1307],10.1 ± 0.38
19,ACAATAAAGAACAGTATGCACTTTTATGCATGCGTA,9.94 ± 0.028

row,Sequence,gcPBM binding intensity (ln)
1,TACATGCAAAAAATTCCACACACACCCCCACATATA [CACACA_site8329],11 ± 0.57
2,TAAAATATAGGAAATACATGCATATTAAATATTCCT [TGCATGCA_site1057],9.62 ± 0.14
3,TACTTCATTCATTTTACACACATATAAACCCTTTTA [CACACA_site3229],10.07 ± 0.049
4,ACTAATACATAAAAAAGTACAAATATGAGTATTAAC [XGTACX_site7281],11.5 ± 0.86
5,AATATTCAATATAAAGTGCATTATTGTGGACCTAAT,10.7 ± 0.49
6,TATATAGCTAAAAACACACAAATATGTACACATAAA [CACACA_site7665],11.4 ± 0.73
7,CTTTTTCTTTTCCGGCGTACAGACTTAGTAGTAGAT [XGTACX_site2268],11.6 ± 0.88
8,TTTTTTAAATTGGTAGTGCAATATGATTGAACAAAA [GTGCAC_site9715],10.4 ± 0.39
9,AAAAAAAAAAAAAGTACACACATACAGATAAATATA [CACACA_site5067],11.6 ± 1
10,ATAAATTGATTCAACACACACATATGTAGGAAGTTA [CACACA_site3253],9.935 ± 0.078
11,TTAATCAAATTACTATGTACATAAAACATATAAGAA [XGTACX_site381],11.2 ± 0.76
12,TATTTTTTTTCAAAAAAGTTTATTTAGAACTAAATA [XGTACX_negctrl_site487],9.745 ± 0.049
13,GGGTATACCAATATAACACACATATATATATAATAT [CACACA_site450],9.9 ± 0.014
14,AAATTATTAAAAAAGTGTACATATTTTTATAATACC [XGTACX_site5610],11.5 ± 0.71
15,ATAAGCATACATATTACACACATATAACATCTATAT [CACACA_site7219],9.98 ± 0.014
16,TATATATATATACATACATGCATATATATATATATA [TGCATGCA_site513],9.81 ± 0.59
17,AATACAATAAAAAAAAGTACACATGTATAAAAAATT [XGTACX_site8270],11.6 ± 0.8
18,AATATATCTTATTTAACACACACAAAGAAAATAGAA [CACACA_site9242],10.24 ± 0.099
